# Laboratory results reported in PubChem BioAssay AID1768 (National Center for Advancing Translational Sciences (NCATS), 2009).
# Where “and” joins values, the source holds several entries; their conditions need not be identical. Equal entries are not always repeated. Screen size: about 270,000 compounds; about 620 (0.23%) were called active. Inconclusive results, whose numbers are uncertain, are shown with a selection of clear calls. The call rests on the fitted dose curve; in most records, active means well fitted inhibition curve with a large enough effect in the polarisation, with a control signal flat (not every such curve was filed as active); inconclusive means small, poorly fitted or top-dose-only effect, or effect the other way, or a change in a side signal; inactive means no such curve, though single readings can be large or run the other way; the % refers to the polarisation. Where the call is inconclusive, the potency comes from a doubtful curve fit. A note “side channel” means that the fit belongs to a control or component signal, not to the main read-out.
# Biological target: Menin (Homo sapiens) (UniProt O00255)
# Chain of UniProt O00255 (O00255 whole entry, looked up): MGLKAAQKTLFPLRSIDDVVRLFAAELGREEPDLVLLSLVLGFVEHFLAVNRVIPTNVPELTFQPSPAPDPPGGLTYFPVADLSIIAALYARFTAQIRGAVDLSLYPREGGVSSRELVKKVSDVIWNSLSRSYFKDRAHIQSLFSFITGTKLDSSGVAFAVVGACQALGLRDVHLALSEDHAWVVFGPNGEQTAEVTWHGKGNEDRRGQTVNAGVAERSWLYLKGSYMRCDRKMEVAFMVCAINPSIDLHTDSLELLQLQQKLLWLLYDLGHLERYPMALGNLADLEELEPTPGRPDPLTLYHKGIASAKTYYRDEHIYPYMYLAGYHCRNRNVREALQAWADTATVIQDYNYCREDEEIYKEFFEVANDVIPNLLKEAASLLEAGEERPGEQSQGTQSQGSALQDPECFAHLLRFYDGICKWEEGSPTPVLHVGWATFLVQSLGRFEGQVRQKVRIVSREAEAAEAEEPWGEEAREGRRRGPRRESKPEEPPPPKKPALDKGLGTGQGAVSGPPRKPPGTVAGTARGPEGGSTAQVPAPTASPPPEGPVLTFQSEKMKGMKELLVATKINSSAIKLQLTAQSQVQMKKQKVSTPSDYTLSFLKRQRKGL
# Experiment: qHTS Assay for Inhibitors Targeting the Menin-MLL Interaction in MLL Related Leukemias: Competition With Texas Red Labeled MLL-derived Mutant Peptide; on FP activity change, negative = inhibition: % of control where 0% means no effect
# Details: fluorescence polarization; FP activity change, negative = inhibition: at 61.6 µM (top of the series)
# Potency means the concentration at half of the fitted maximal effect; tags describe the fitted curve by direction and shape or compound fluorescence and quenching.
Compound,Potency,"FP activity change, negative = inhibition"
CC(C)(C)OC(=O)N1CCC(c2cc(=O)n3[nH]cc(C(=O)NC4CCCC4)c3n2)CC1,"inconclusive: 10 µM [quencher, side channel, partial curve]",
S=c1[nH]nc(C2CCCCC2)n1/N=C/c1cccc(Br)c1,"inconclusive: 39.8 µM [inhibitor, single point]",
O=c1c2c(-c3cccc([N+](=O)[O-])c3)ccnc2[nH]n1-c1ccccc1,"inconclusive: 15.8 µM [quencher, side channel, partial curve]",
CC(C)(C)c1ccc(C(=O)NNC(=O)c2cccc(Br)c2)cc1,"inconclusive: 39.8 µM [fluorescent, side channel, single point]",
CN1C(=O)C(CC(=O)Nc2ccc(Cl)cc2)N(Cc2ccco2)C1=S (configuration not stated),"inconclusive: 17.8 µM [quencher, side channel, partial curve]",
CC(C)CCn1c(Oc2ccc(Cl)cc2)nc2c1c(=O)n(C)c(=O)n2C,"inconclusive: 14.1 µM [fluorescent, side channel, partial curve]",
COc1ccc(NC(=O)C2=CC(c3ccc(OC)cc3)=NS(=O)(=O)N2C)cc1,"inconclusive: 28.2 µM [quencher, side channel, single point]",
COc1cccc2c1C(=O)c1c(O)c3c(c(O)c1C2=O)C[C@@](O)(C(=O)CO)C[C@@H]3O[C@@H]1C[C@H](N)[C@H](O)[C@H](C)O1,"inconclusive: 25.1 µM [fluorescent, side channel, partial curve]",
c1cncc(C2Nc3ccccc3-c3nc4ccccc4n32)c1 (configuration not stated),,inactive: 9.23%
COc1ccc(-c2cc(-c3cc(OC)ccc3O)[nH]n2)cc1,"inconclusive: 25.1 µM [quencher, side channel, partial curve]",
O=C1C2CCCCN2C(=O)N1CCCCN1CCN(c2cccc(Br)c2)CC1 (configuration not stated),"inconclusive: 31.6 µM [inhibitor, partial curve]",
CC1CCN(S(=O)(=O)c2ccc(N/N=C(/C#N)C(N)=O)cc2)CC1,"inconclusive: 25.1 µM [quencher, side channel, partial curve]",
O=C(NCc1ccccc1F)Nc1ccc([N+](=O)[O-])cc1,"inconclusive: 11.2 µM [quencher, side channel, partial curve]",
Cc1ccc(OCCCN2C(=O)C(=O)c3cc(C)ccc32)cc1,"inconclusive: 10 µM [inhibitor, partial curve]",
COc1ccc(/C=N/N(CCC(=O)NC(C)(C)C)C2=NS(=O)(=O)c3ccccc32)cc1,"inconclusive: 14.1 µM [fluorescent, side channel, partial curve]",
Fc1ccccc1C1c2cccn2CCN1C(=S)Nc1cccc(Br)c1 (configuration not stated),"inconclusive: 39.8 µM [inhibitor, single point]",
Cc1ccc(C(C(=O)NCc2ccccc2)N(C(=O)c2csnn2)c2cccc3ccccc23)o1 (configuration not stated),"inconclusive: 1.26 µM [fluorescent, side channel, full curve, poor fit]",
C=CCN1C(=O)[C@@H]2Cc3c([nH]c4ccccc34)C(c3ccc(O)cc3)N2C1=S (some centres not stated),"inconclusive: 11.2 µM [quencher, side channel, partial curve]",
CC(C)c1ccc(NC(=O)Cn2ncc3ccccc32)cc1,"inconclusive: 2.51 µM [quencher, side channel, partial curve]",
CCOc1cccc(NC(=O)C2CCCN(S(=O)(=O)c3ccc(-n4cnnn4)cc3)C2)c1 (configuration not stated),"inconclusive: 11.2 µM [quencher, side channel, partial curve]",
COc1cccc(NC(=O)C(NC2CCCC2)c2ccccc2)c1 (configuration not stated),"inconclusive: 39.8 µM [fluorescent, side channel, single point]",
Cc1ccc(N(CC(O)CN2CCCCC2)S(=O)(=O)c2ccccc2[N+](=O)[O-])cc1 (configuration not stated),"inconclusive: 39.8 µM [fluorescent, side channel, single point]",
O=C(Nc1csc(Cc2c(Cl)cccc2Cl)n1)NN1CCOCC1,"inconclusive: 7.94 µM [inhibitor, full curve]",
O=C(Nc1ccc(Cl)cc1C(=O)O)c1ccc2c(c1)C(=O)N(Cc1ccco1)C2=O,"inconclusive: 22.4 µM [quencher, side channel, partial curve]",
COc1ccc(-c2cn(Cc3ccc(C(=O)c4ccccc4)cc3)nn2)cc1,"inconclusive: 39.8 µM [inhibitor, partial curve]",
CCCOC(=O)c1ccc(Oc2c(-c3ccc(OCC)cc3O)n[nH]c2C)cc1,"inconclusive: 2.51 µM [quencher, side channel, full curve]",

Compound,Potency,"FP activity change, negative = inhibition"
CCCCN(c1ccccc1)c1ncnc(N)c1[N+](=O)[O-],"inconclusive: 4.47 µM [inhibitor, full curve]",
Cc1cc(N2CCOCC2)ccc1/C=C1\NC(=O)N(CC(=O)Nc2ccc(F)cc2)C1=O,"inconclusive: 10 µM [quencher, side channel, partial curve]",
COc1ccc(C(=O)Cc2cc3cccc(OC)c3oc2=O)cc1,"inconclusive: 39.8 µM [fluorescent, side channel, single point]",
COc1cc(C(=O)O[C@H]2C/C(C)=C/CC/C(C)=C/[C@@H](O)C2C(C)C)ccc1O (some centres not stated),,inactive: 25.4%
O=C(CSc1nnc(-c2cccc(S(=O)(=O)N3CCCCC3)c2)o1)c1ccc[nH]1,"inconclusive: 35.5 µM [quencher, side channel, single point]",
Cc1ccccc1CC(=O)N1CCCC(CCC(=O)N2CCN(c3ccccn3)CC2)C1 (configuration not stated),"inconclusive: 5.01 µM [fluorescent, side channel, full curve, poor fit]",
O=C(NC1CCCCC1)C(c1ccc2ncccc2c1)N(Cc1ccc(F)cc1)C(=O)c1ccc2c(c1)OCCO2 (configuration not stated),"inconclusive: 2.82 µM [inhibitor, partial curve, poor fit]",
CS(=O)(=O)C1=NSC2=NC(=O)/C(=C\c3cccn3-c3ccccc3Cl)C(=N)N21,"inconclusive: 31.6 µM [quencher, side channel, single point]",
O=C(Nc1ccc(C(=O)O)cc1)Nc1ccc([N+](=O)[O-])cc1,"inconclusive: 31.6 µM [quencher, side channel, single point]",
COc1ccc(-n2c(C)c(C(C)=O)c3cc(OCC(N)=O)ccc32)cc1,"inconclusive: 35.5 µM [fluorescent, side channel, partial curve]",
CCOC(=O)N1CCN(S(=O)(=O)N2CCCC(C(=O)NCc3ccc(OC)cc3)C2)CC1 (configuration not stated),"inconclusive: 28.2 µM [quencher, side channel, single point]",
CC1=C(/C=C/C(C)=C/C=C/C(C)=C/C(=O)Nc2ccc(O)cc2)C(C)(C)CCC1,"inconclusive: 3.55 µM [quencher, side channel, full curve] and inconclusive: 12.6 µM [quencher, side channel, partial curve]",
COc1cc(NS(=O)(=O)c2ccc(Nc3nc(-c4ccccn4)cs3)cc2)nc(OC)n1,"inconclusive: 35.5 µM [quencher, side channel, single point]",
c1ccc(C2Nc3ccccc3-c3nc4ccccc4n32)cc1 (configuration not stated),"inconclusive: 35.5 µM [quencher, side channel, single point]",
CNc1nc(Nc2ccc(C)c(Cl)c2)nc(N)c1[N+](=O)[O-],"inconclusive: 15.8 µM [quencher, side channel, partial curve]",
Nc1nc2nccc(-c3ccc(Cl)cc3)n2n1,,inactive: -5.62%
O=C(/C=C/c1ccccc1Cl)Nc1cccc(O)c1,"inconclusive: 11.2 µM [quencher, side channel, partial curve]",
Cc1nnsc1C(=O)Nc1ccc(S(=O)(=O)N2CCCC(C)C2)cc1 (configuration not stated),"inconclusive: 14.1 µM [quencher, side channel, partial curve]",
CCNC(=S)NNC(=O)c1cc(-c2cccc(OC)c2)nc2ccccc12,"inconclusive: 17.8 µM [quencher, side channel, single point]",
CCOCCCN1C(=O)CN(C2CCC(C)CC2)C(=O)C1c1ccc(C)cc1 (configuration not stated),"inconclusive: 17.8 µM [inhibitor, partial curve]",
Cn1c(=O)[nH]c(=O)c2c1nc(SCCO)n2Cc1ccccc1Cl,"inconclusive: 25.1 µM [inhibitor, single point]",
Cc1cc(C(=O)OCC(=O)Nc2sc3c(c2C#N)CCC(C)C3)c2ccccc2n1 (configuration not stated),"inconclusive: 25.1 µM [quencher, side channel, partial curve]",
C=C(C)Cn1c(N2CCC(Cc3ccccc3)CC2)nc2c1c(=O)[nH]c(=O)n2C,"inconclusive: 5.01 µM [fluorescent, side channel, full curve, poor fit]",
O=S(=O)(Nc1nc2ccccc2nc1Cl)c1cccc(C(F)(F)F)c1,"inconclusive: 25.1 µM [quencher, single point]",
CCOC(=O)C(C)N1N=C(/C=C/c2ccc(OC)cc2)CCC1=O (configuration not stated),"inconclusive: 3.98 µM [inhibitor, full curve, poor fit]",
CCCCOC(=O)CSC1=C(C#N)C(c2ccccc2OCC)C(C#N)C(=O)N1 (configuration not stated),"inconclusive: 20 µM [quencher, side channel, partial curve]",
